# Some of the results follow.
# Experiments:
# Experiment in all cases: glycan array binding signal (z-score within array); higher = stronger binding
# Conditions in all cases: glycan notation: IUPAC condensed, linker removed
# [1] = target: Gal(b1-3)GlcNAc(a1-6)Gal(b1-4)GlcNAc
# Method in brief: (§1)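 Columns mapping to the same glycan were averaged after glycan names were converted to IUPAC-condensed notation. The data come from 3228 arrays in the Consortium for Functional Glycomics database, limited to those with an available protein sequence. Binding is reported as a within-array Z-score averaged across arrays of one protein sequence and across linkers.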
# Gal(b1-3)GlcNAc(b1-2)Man = target: Gal(b1-3)GlcNAc(b1-2)Man
# Method in brief: as §1
# [2] = target: Gal(b1-3)GlcNAc(b1-2)Man(a1-3)[Gal(b1-3)GlcNAc(b1-2)Man(a1-6)]Man(b1-4)GlcNAc(b1-4)GlcNAc
# Method in brief: as §1
# [3] = target: Gal(b1-3)GlcNAc(b1-2)Man(a1-3)[Gal(b1-3)GlcNAc(b1-2)Man(a1-6)]Man(b1-4)GlcNAc(b1-4)[Fuc(a1-6)]GlcNAc
# Method in brief: as §1
# [4] = target: Gal(b1-3)GlcNAc(b1-2)Man(a1-3)[GlcNAc(b1-4)][Gal(b1-3)GlcNAc(b1-2)Man(a1-6)]Man(b1-4)GlcNAc(b1-4)GlcNAc
# Method in brief: as §1
# [5] = target: Gal(b1-3)GlcNAc(b1-2)[Gal(b1-3)GlcNAc(b1-6)]Man(a1-6)[Gal(b1-3)GlcNAc(b1-2)Man(a1-3)]Man(b1-4)GlcNAc(b1-4)GlcNAc
# Method in brief: as §1
# [6] = target: Gal(b1-3)GlcNAc(b1-3)Gal(b1-3)GlcNAc
# Method in brief: as §1
# [7] = target: Gal(b1-3)GlcNAc(b1-3)Gal(b1-4)Glc
# Method in brief: as §1
# [8] = target: Gal(b1-3)GlcNAc(b1-3)Gal(b1-4)GlcNAc
# Method in brief: as §1
# [9] = target: Gal(b1-3)GlcNAc(b1-3)Gal(b1-4)GlcNAc(b1-2)Man(a1-3)[Gal(b1-3)GlcNAc(b1-3)Gal(b1-4)GlcNAc(b1-2)Man(a1-6)]Man(b1-4)GlcNAc(b1-4)GlcNAc
# Method in brief: as §1
# [10] = target: Gal(b1-3)GlcNAc(b1-3)Gal(b1-4)GlcNAc(b1-2)[Gal(b1-3)GlcNAc(b1-3)Gal(b1-4)GlcNAc(b1-6)]Man(a1-6)[Gal(b1-3)GlcNAc(b1-3)Gal(b1-4)GlcNAc(b1-2)Man(a1-3)]Man(b1-4)GlcNAc(b1-4)[Fuc(a1-6)]GlcNAc
# Method in brief: as §1
# [11] = target: Gal(b1-3)GlcNAc(b1-3)Gal(b1-4)GlcNAc(b1-3)Gal(b1-4)GlcNAc(b1-2)[Gal(b1-3)GlcNAc(b1-3)Gal(b1-4)GlcNAc(b1-3)Gal(b1-4)GlcNAc(b1-6)]Man(a1-6)[Gal(b1-3)GlcNAc(b1-3)Gal(b1-4)GlcNAc(b1-3)Gal(b1-4)GlcNAc(b1-2)Man(a1-3)]Man(b1-4)GlcNAc(b1-4)[Fuc(a1-6)]GlcNAc
# Method in brief: as §1
# [12] = target: Gal(b1-3)GlcNAc(b1-3)Gal(b1-4)GlcNAc(b1-6)[Gal(b1-3)GlcNAc(b1-3)]Gal(b1-4)Glc
# Method in brief: as §1
# [13] = target: Gal(b1-3)GlcNAc(b1-3)Gal(b1-4)[Fuc(a1-3)]GlcNAc
# Method in brief: as §1
# [14] = target: Gal(b1-3)GlcNAc(b1-3)Gal(b1-4)[Fuc(a1-3)]GlcNAc(b1-6)[Gal(b1-3)GlcNAc(b1-3)]Gal(b1-4)Glc
# Method in brief: as §1
# [15] = target: Gal(b1-3)GlcNAc(b1-3)GalNAc
# Method in brief: as §1
# [16] = target: Gal(b1-3)GlcNAc(b1-6)Gal(b1-4)GlcNAc
# Method in brief: as §1
# [17] = target: Gal(b1-3)GlcNAc(b1-6)GalNAc
# Method in brief: as §1
# [18] = target: Gal(b1-3)GlcNAc(b1-6)[Gal(b1-3)]GalNAc
# Method in brief: as §1
# Gal(b1-3)GlcNAc6S = target: Gal(b1-3)GlcNAc6S
# Method in brief: as §1
# [19] = target: Gal(b1-3)[Fuc(a1-4)]GlcNAc
# Method in brief: as §1
# [20] = target: Gal(b1-3)[Fuc(a1-4)]GlcNAc(b1-2)Man
# Method in brief: as §1
# [21] = target: Gal(b1-3)[Fuc(a1-4)]GlcNAc(b1-2)Man(a1-3)[Gal(b1-3)[Fuc(a1-4)]GlcNAc(b1-2)Man(a1-6)]Man(b1-4)GlcNAc(b1-4)[Fuc(a1-6)]GlcNAc
# Method in brief: as §1
# [22] = target: Gal(b1-3)[Fuc(a1-4)]GlcNAc(b1-3)Gal(b1-3)[Fuc(a1-4)]GlcNAc
# Method in brief: as §1
# [23] = target: Gal(b1-3)[Fuc(a1-4)]GlcNAc(b1-3)Gal(b1-4)GlcNAc
# Method in brief: as §1
# [24] = target: Gal(b1-3)[Fuc(a1-4)]GlcNAc(b1-3)Gal(b1-4)[Fuc(a1-3)]GlcNAc
# Method in brief: as §1
# [25] = target: Gal(b1-3)[Fuc(a1-4)]GlcNAc(b1-6)GalNAc
# Method in brief: as §1
# [26] = target: Gal(b1-3)[GlcNAc(b1-6)]GalNAc
# Method in brief: as §1
# [27] = target: Gal(b1-3)[GlcNAc(b1-6)]GlcNAc
# Method in brief: as §1
# [28] = target: Gal(b1-3)[Neu5Ac(a2-6)]GalNAc
# Method in brief: as §1
# [29] = target: Gal(b1-3)[Neu5Ac(a2-6)]GlcNAc
# Method in brief: as §1
# [30] = target: Gal(b1-3)[Neu5Ac(a2-6)]GlcNAc(a1-4)Gal(b1-4)Glc
# Method in brief: as §1
# [31] = target: Gal(b1-3)[Neu5Ac(a2-6)]GlcNAc(b1-4)Gal(b1-4)Glc
# Method in brief: as §1
# [32] = target: Gal(b1-3)[Neu5Ac(b2-6)]GalNAc
# Method in brief: as §1
# [33] = target: Gal(b1-3)[Neu5Ac(b2-6)]GlcNAc
# Method in brief: as §1
# Gal(b1-4)Gal = target: Gal(b1-4)Gal
# Method in brief: as §1
# [34] = target: Gal(b1-4)GalNAc(a1-3)[Fuc(a1-2)]Gal(b1-4)GlcNAc
# Method in brief: as §1
# [35] = target: Gal(b1-4)GalNAc(b1-3)[Fuc(a1-2)]Gal(b1-4)GlcNAc
# Method in brief: as §1
# Gal(b1-4)Glc = target: Gal(b1-4)Glc
# Method in brief: as §1
# Gal(b1-4)Glc6S = target: Gal(b1-4)Glc6S
# Method in brief: as §1
# Gal(b1-4)GlcNAc = target: Gal(b1-4)GlcNAc
# Method in brief: as §1
# [36] = target: Gal(b1-4)GlcNAc(a1-6)Gal(b1-4)GlcNAc
# Method in brief: as §1
# Gal(b1-4)GlcNAc(b1-2)Man = target: Gal(b1-4)GlcNAc(b1-2)Man
# Method in brief: as §1
# [37] = target: Gal(b1-4)GlcNAc(b1-2)Man(a1-3)Man(b1-4)GlcNAc(b1-4)GlcNAc
# Method in brief: as §1
# [38] = target: Gal(b1-4)GlcNAc(b1-2)Man(a1-3)[Gal(b1-4)GlcNAc(b1-2)Man(a1-6)]Man(b1-4)GlcNAc(b1-4)GlcNAc
# Method in brief: as §1
binder,measurement,setting,value
"MGL1 (Mus musculus), P49300 (protein) MIYENLQNSRIEEKTQEPGKAPSQSFLWRILSWTHLLLFSLGLSLLLLVVVSVIGSQNSQLRRDLGTLRATLDNTTSKIKAEFQSLDSRADSFEKGISSLKVDVEDHRQELQAGRDLSQKVTSLESTVEKREQALKTDLSDLTDHVQQLRKDLKALTCQLANLKNNGSEVACCPLHWTEHEGSCYWFSESEKSWPEADKYCRLENSHLVVVNSLEEQNFLQNRLANVVSWIGLTDQNGPWRWVDGTDFEKGFKNWAPLQPDNWFGHGLGGGEDCAHITTGGPWNDDVCQRTFRWICEMKLAKES",glycan array binding signal (z-score),[1],2.23
same,glycan array binding signal (z-score),Gal(b1-3)GlcNAc(b1-2)Man,0.005
same,glycan array binding signal (z-score),[2],-0.284
same,glycan array binding signal (z-score),[3],-0.472
same,glycan array binding signal (z-score),[4],0.528
same,glycan array binding signal (z-score),[5],0.257
same,glycan array binding signal (z-score),[6],0.139
same,glycan array binding signal (z-score),[7],0.128
same,glycan array binding signal (z-score),[8],0.095
same,glycan array binding signal (z-score),[9],0.508
same,glycan array binding signal (z-score),[10],0.85
same,glycan array binding signal (z-score),[11],2.28
same,glycan array binding signal (z-score),[12],0.418
same,glycan array binding signal (z-score),[13],0.64
same,glycan array binding signal (z-score),[14],0.471
same,glycan array binding signal (z-score),[15],-0.195
same,glycan array binding signal (z-score),[16],-0.011
same,glycan array binding signal (z-score),[17],0.53
same,glycan array binding signal (z-score),[18],-0.643
same,glycan array binding signal (z-score),Gal(b1-3)GlcNAc6S,0.828
same,glycan array binding signal (z-score),[19],0.7
same,glycan array binding signal (z-score),[20],-0.101
same,glycan array binding signal (z-score),[21],-0.121
same,glycan array binding signal (z-score),[22],-0.017
same,glycan array binding signal (z-score),[23],-0.08
same,glycan array binding signal (z-score),[24],1.01
same,glycan array binding signal (z-score),[25],-0.239
same,glycan array binding signal (z-score),[26],0.109
same,glycan array binding signal (z-score),[27],-0.138
same,glycan array binding signal (z-score),[28],-0.361
same,glycan array binding signal (z-score),[29],-0.137
same,glycan array binding signal (z-score),[30],-0.125
same,glycan array binding signal (z-score),[31],0.273
same,glycan array binding signal (z-score),[32],0.779
same,glycan array binding signal (z-score),[33],-0.162
same,glycan array binding signal (z-score),Gal(b1-4)Gal,-0.627
same,glycan array binding signal (z-score),[34],0.018
same,glycan array binding signal (z-score),[35],-0.234
same,glycan array binding signal (z-score),Gal(b1-4)Glc,-0.136
same,glycan array binding signal (z-score),Gal(b1-4)Glc6S,-0.462
same,glycan array binding signal (z-score),Gal(b1-4)GlcNAc,-0.356
same,glycan array binding signal (z-score),[36],0.768
same,glycan array binding signal (z-score),Gal(b1-4)GlcNAc(b1-2)Man,-0.586
same,glycan array binding signal (z-score),[37],-0.403
same,glycan array binding signal (z-score),[38],-0.02
